Laboratory results from paper PMC4107866.
Numbering of substitutions follows the chain as printed. These are yes or no findings as the source states them, for the method shown. In cells and extracts the contact can be indirect. Some entries that bind do so weakly or less than the wild type. Where a sequence is shown, tags or fusion partners need not be part of it. Blank lines part the entries; values can stand above or below the binder they belong to.

By UniProt entry, the sequences of proteins in these tests, tags left out.
UniProt Q9Y2Y4: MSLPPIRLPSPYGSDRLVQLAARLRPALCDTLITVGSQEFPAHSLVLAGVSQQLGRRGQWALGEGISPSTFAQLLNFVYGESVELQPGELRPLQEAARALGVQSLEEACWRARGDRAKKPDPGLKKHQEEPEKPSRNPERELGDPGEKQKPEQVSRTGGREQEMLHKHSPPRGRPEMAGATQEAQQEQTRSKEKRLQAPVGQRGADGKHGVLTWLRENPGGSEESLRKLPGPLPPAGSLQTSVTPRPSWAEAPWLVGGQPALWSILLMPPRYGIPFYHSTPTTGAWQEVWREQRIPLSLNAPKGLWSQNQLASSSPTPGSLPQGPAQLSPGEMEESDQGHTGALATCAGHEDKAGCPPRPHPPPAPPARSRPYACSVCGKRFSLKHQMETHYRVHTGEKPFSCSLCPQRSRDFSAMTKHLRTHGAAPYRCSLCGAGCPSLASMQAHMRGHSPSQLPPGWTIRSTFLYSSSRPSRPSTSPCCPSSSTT

How the values were obtained:
FLAG-tagged Cul3 (human) = FLAG-tagged Cul3 (human) (UniProt Q13618); assay: co-IP; HEK293 cells co-transfected with tagged proteins (FLAG-Cul3, MYC-BTB proteins, HA-CLWs); lysates in RIPA buffer, primary antibody then protein A-Sepharose, 1 hr each at 4°C, two washes with RIPA; immunoblot
FLAG-Cul3Δ51-67 (human) = FLAG-Cul3Δ51-67 (human) (UniProt Q13618); assay: as above
FLAG-TEV-Cul3 (human) = FLAG-TEV-Cul3 (human) (UniProt Q13618); assay: co-IP; two sequential immunoprecipitations from lysates co-expressing FLAG-TEV-Cul3, MYC-Ctb73 and HA-LRR5: FLAG beads, release by TEV protease, then MYC antibody; immunoblot for HA-LRR5
FAZF (human) = FAZF (human) (UniProt Q9Y2Y4); assay: co-IP; HEK293 cells co-transfected with tagged proteins (FLAG-Cul3, MYC-BTB proteins, HA-CLWs); lysates in RIPA buffer, primary antibody then protein A-Sepharose, 1 hr each at 4°C, two washes with RIPA; immunoblot
MYC-Ctb73 (human) [1] = molecular target: T1, MYC-Ctb73 (human) (UniProt Q9H0C5); assay: as above
T1 sequence: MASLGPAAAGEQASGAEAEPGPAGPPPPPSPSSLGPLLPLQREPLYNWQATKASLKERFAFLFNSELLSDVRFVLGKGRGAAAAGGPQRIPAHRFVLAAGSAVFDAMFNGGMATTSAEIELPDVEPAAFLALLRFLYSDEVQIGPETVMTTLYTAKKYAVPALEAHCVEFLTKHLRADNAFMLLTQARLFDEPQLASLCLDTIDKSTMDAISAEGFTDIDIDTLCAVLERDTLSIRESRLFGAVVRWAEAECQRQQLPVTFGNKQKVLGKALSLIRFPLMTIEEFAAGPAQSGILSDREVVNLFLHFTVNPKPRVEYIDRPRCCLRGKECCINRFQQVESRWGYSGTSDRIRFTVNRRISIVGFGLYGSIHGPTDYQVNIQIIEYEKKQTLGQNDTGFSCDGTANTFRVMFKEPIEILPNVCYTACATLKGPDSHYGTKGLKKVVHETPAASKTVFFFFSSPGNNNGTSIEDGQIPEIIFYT

PLZF (human) = molecular target: T2, PLZF (human) (UniProt Q05516); assay: as above
T2 sequence: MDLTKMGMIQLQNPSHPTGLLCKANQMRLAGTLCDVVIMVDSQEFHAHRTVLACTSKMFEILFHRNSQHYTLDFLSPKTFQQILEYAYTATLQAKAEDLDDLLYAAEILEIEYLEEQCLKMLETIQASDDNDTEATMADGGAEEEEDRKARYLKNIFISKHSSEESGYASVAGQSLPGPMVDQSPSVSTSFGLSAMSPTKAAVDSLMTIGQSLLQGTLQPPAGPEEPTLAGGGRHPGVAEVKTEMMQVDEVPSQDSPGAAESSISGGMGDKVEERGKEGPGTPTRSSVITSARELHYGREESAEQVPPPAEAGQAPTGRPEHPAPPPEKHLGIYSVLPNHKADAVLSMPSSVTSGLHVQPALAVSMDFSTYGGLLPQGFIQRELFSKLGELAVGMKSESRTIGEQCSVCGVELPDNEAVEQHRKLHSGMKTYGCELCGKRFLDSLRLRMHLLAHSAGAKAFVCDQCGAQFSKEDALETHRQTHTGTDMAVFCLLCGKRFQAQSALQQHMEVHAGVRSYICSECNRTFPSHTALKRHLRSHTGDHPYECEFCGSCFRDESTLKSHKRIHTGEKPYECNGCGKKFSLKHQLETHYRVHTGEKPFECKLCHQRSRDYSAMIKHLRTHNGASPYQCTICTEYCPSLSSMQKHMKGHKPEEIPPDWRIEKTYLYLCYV

MYC-Ctb73 (human) [2] = molecular target: T1, MYC-Ctb73 (human); assay: co-IP; two sequential immunoprecipitations from lysates co-expressing FLAG-TEV-Cul3, MYC-Ctb73 and HA-LRR5: FLAG beads, release by TEV protease, then MYC antibody; immunoblot for HA-LRR5
MYC-Ctb73Δ2-61 (human) = molecular target: T3, MYC-Ctb73Δ2-61 (human) (UniProt Q9H0C5); assay: co-IP; HEK293 cells co-transfected with tagged proteins (FLAG-Cul3, MYC-BTB proteins, HA-CLWs); lysates in RIPA buffer, primary antibody then protein A-Sepharose, 1 hr each at 4°C, two washes with RIPA; immunoblot
T3 sequence: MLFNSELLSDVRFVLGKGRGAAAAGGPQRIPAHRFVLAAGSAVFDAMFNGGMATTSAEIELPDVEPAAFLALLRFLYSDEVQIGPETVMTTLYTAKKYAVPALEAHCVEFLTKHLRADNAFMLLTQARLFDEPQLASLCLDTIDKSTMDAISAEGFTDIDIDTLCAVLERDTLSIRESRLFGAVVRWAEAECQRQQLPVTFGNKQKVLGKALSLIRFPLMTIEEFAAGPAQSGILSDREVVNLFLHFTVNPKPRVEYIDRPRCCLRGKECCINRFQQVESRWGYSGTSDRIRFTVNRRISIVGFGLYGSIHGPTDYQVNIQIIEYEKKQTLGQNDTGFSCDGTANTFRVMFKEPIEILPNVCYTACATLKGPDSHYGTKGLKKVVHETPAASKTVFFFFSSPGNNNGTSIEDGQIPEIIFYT

- binding (FLAG-tagged Cul3 (human)): binds
- binding (FLAG-Cul3Δ51-67 (human)): no binding
- binding (FLAG-TEV-Cul3 (human)): binds
B1: MYC-Ctb73 (protein, UniProt Q9H0C5 1-482)
chain: T1 sequence

- binding (FAZF (human)): binds
- binding (FLAG-tagged Cul3 (human)): binds
- binding (MYC-Ctb73 (human) [1]): binds
- binding (PLZF (human)): no binding
- binding (FLAG-Cul3Δ51-67 (human)): binds
- binding (MYC-Ctb73 (human) [2]): binds
- binding (FLAG-TEV-Cul3 (human)): binds
B2: HA-LRR5 (fibromodulin) (protein, UniProt Q06828 19-376)
chain: QYEDDPHWWFHYLRSQQSTYYDPYDPYPYETYEPYPYGVDEGPAYTYGSPSPPDPRDCPQECDCPPNFPTAMYCDNRNLKYLPFVPSRMKYVYFQNNQITSIQEGVFDNATGLLWIALHGNQITSDKVGRKVFSKLRHLERLYLDHNNLTRMPGPLPRSLRELHLDHNQISRVPNNALEGLENLTALYLQHNEIQEVGSSMRGLRSLILLDLSYNHLRKVPDGLPSALEQLYMEHNNVYTVPDSYFRGAPKLLYVRLSHNSLTNNGLASNTFNSSSLLELDLSYNQLQKIPPVNTNLENLYLQGNRINEFSISSFCTVVDVVNFSKLQVLRLDGNEIKRSAMPADAPLCLRLASLIEI

- binding (FLAG-tagged Cul3 (human)): binds
- binding (MYC-Ctb73 (human) [1]): binds
- binding (MYC-Ctb73Δ2-61 (human)): no binding
- binding (FLAG-Cul3Δ51-67 (human)): no binding
B3: HA-LRR5-B/C (protein, UniProt Q06828 19-376)
chain: B2 chain with I312G, C316A
